# Experimental data as given in the supplement of paper PMC8728848.
# The list shows a part of the results.
# Legend:
# Experiment in all cases: glycan array binding signal (z-score within array); higher = stronger binding
# Conditions in all cases: glycan notation: IUPAC condensed, linker removed
# [1] = target: Neu5Ac(a2-3)Gal6S(b1-4)[Fuc(a1-3)]GlcNAc
# In short: (§1)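 Glycan array data were curated from 3228 arrays in the Consortium for Functional Glycomics database and kept only where the protein sequence was available. Glycan names were converted to IUPAC-condensed notation, and columns mapping to the same glycan were averaged. The binding signal is a within-array Z-score, averaged across arrays of the same protein sequence at different concentrations or buffers and across linkers. Negative Z-scores can be read as non-binding.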
# Neu5Ac(a2-3)GalNAc = target: Neu5Ac(a2-3)GalNAc
# In short: as §1
# [2] = target: Neu5Ac(a2-3)GalNAc(b1-4)GlcNAc
# In short: as §1
# [3] = target: Neu5Ac(a2-3)[GalNAc(b1-4)]Gal(b1-4)Glc
# In short: as §1
# [4] = target: Neu5Ac(a2-3)[GalNAc(b1-4)]Gal(b1-4)GlcNAc
# In short: as §1
# [5] = target: Neu5Ac(a2-3)[GalNAc(b1-4)]Gal(b1-4)GlcNAc(b1-3)GalNAc
# In short: as §1
# [6] = target: Neu5Ac(a2-3)[Neu5Ac(a2-6)]GalNAc
# In short: as §1
# Neu5Ac(a2-6)Gal = target: Neu5Ac(a2-6)Gal
# In short: as §1
# [7] = target: Neu5Ac(a2-6)Gal(b1-3)GlcNAc(b1-3)[Gal(b1-4)GlcNAc(b1-6)]Gal(b1-4)Glc
# In short: as §1
# Neu5Ac(a2-6)Gal(b1-4)Glc = target: Neu5Ac(a2-6)Gal(b1-4)Glc
# In short: as §1
# [8] = target: Neu5Ac(a2-6)Gal(b1-4)GlcNAc
# In short: as §1
# [9] = target: Neu5Ac(a2-6)Gal(b1-4)GlcNAc(b1-2)Man
# In short: as §1
# [10] = target: Neu5Ac(a2-6)Gal(b1-4)GlcNAc(b1-2)Man(a1-3)Man(b1-4)GlcNAc(b1-4)GlcNAc
# In short: as §1
# [11] = target: Neu5Ac(a2-6)Gal(b1-4)GlcNAc(b1-2)Man(a1-3)[Gal(b1-4)GlcNAc(b1-2)Man(a1-6)]Man(b1-4)GlcNAc(b1-4)GlcNAc
# In short: as §1
# [12] = target: Neu5Ac(a2-6)Gal(b1-4)GlcNAc(b1-2)Man(a1-3)[GlcNAc(b1-2)Man(a1-6)]Man(b1-4)GlcNAc(b1-4)GlcNAc
# In short: as §1
# [13] = target: Neu5Ac(a2-6)Gal(b1-4)GlcNAc(b1-2)Man(a1-3)[GlcNAc(b1-4)][Neu5Ac(a2-6)Gal(b1-4)GlcNAc(b1-2)Man(a1-6)]Man(b1-4)GlcNAc(b1-4)GlcNAc
# In short: as §1
# [14] = target: Neu5Ac(a2-6)Gal(b1-4)GlcNAc(b1-2)Man(a1-3)[Man(a1-6)]Man(b1-4)GlcNAc(b1-4)GlcNAc
# In short: as §1
# [15] = target: Neu5Ac(a2-6)Gal(b1-4)GlcNAc(b1-2)Man(a1-3)[Neu5Ac(a2-3)Gal(b1-4)GlcNAc(b1-2)Man(a1-6)]Man(b1-4)GlcNAc(b1-4)GlcNAc
# In short: as §1
# [16] = target: Neu5Ac(a2-6)Gal(b1-4)GlcNAc(b1-2)Man(a1-3)[Neu5Ac(a2-6)Gal(b1-4)GlcNAc(b1-2)Man(a1-6)]Man(b1-4)GlcNAc(b1-4)GlcNAc
# In short: as §1
# [17] = target: Neu5Ac(a2-6)Gal(b1-4)GlcNAc(b1-2)Man(a1-3)[Neu5Ac(a2-6)Gal(b1-4)GlcNAc(b1-2)Man(a1-6)]Man(b1-4)GlcNAc(b1-4)[Fuc(a1-6)]GlcNAc
# In short: as §1
# [18] = target: Neu5Ac(a2-6)Gal(b1-4)GlcNAc(b1-2)Man(a1-6)Man(b1-4)GlcNAc(b1-4)GlcNAc
# In short: as §1
# [19] = target: Neu5Ac(a2-6)Gal(b1-4)GlcNAc(b1-2)Man(a1-6)[Gal(b1-4)GlcNAc(b1-2)Man(a1-3)]Man(b1-4)GlcNAc(b1-4)GlcNAc
# In short: as §1
# [20] = target: Neu5Ac(a2-6)Gal(b1-4)GlcNAc(b1-2)Man(a1-6)[GlcNAc(b1-2)Man(a1-3)]Man(b1-4)GlcNAc(b1-4)GlcNAc
# In short: as §1
# [21] = target: Neu5Ac(a2-6)Gal(b1-4)GlcNAc(b1-2)Man(a1-6)[Man(a1-3)]Man(b1-4)GlcNAc(b1-4)GlcNAc
# In short: as §1
# [22] = target: Neu5Ac(a2-6)Gal(b1-4)GlcNAc(b1-2)[Neu5Ac(a2-6)Gal(b1-4)GlcNAc(b1-4)]Man(a1-3)[GlcNAc(b1-4)][Neu5Ac(a2-6)Gal(b1-4)GlcNAc(b1-2)[Neu5Ac(a2-6)Gal(b1-4)GlcNAc(b1-6)]Man(a1-6)]Man(b1-4)GlcNAc(b1-4)GlcNAc
# In short: as §1
# [23] = target: Neu5Ac(a2-6)Gal(b1-4)GlcNAc(b1-2)[Neu5Ac(a2-6)Gal(b1-4)GlcNAc(b1-4)]Man(a1-3)[GlcNAc(b1-4)][Neu5Ac(a2-6)Gal(b1-4)GlcNAc(b1-4)Man(a1-6)]Man(b1-4)GlcNAc(b1-4)GlcNAc
# In short: as §1
# [24] = target: Neu5Ac(a2-6)Gal(b1-4)GlcNAc(b1-2)[Neu5Ac(a2-6)Gal(b1-4)GlcNAc(b1-6)]Man(a1-6)[Neu5Ac(a2-6)Gal(b1-4)GlcNAc(b1-2)Man(a1-3)][GlcNAc(b1-4)]Man(b1-4)GlcNAc(b1-4)GlcNAc
# In short: as §1
# [25] = target: Neu5Ac(a2-6)Gal(b1-4)GlcNAc(b1-3)Gal(b1-3)GlcNAc
# In short: as §1
# [26] = target: Neu5Ac(a2-6)Gal(b1-4)GlcNAc(b1-3)Gal(b1-4)GlcNAc
# In short: as §1
# [27] = target: Neu5Ac(a2-6)Gal(b1-4)GlcNAc(b1-3)Gal(b1-4)GlcNAc(b1-2)Man(a1-3)[Neu5Ac(a2-6)Gal(b1-4)GlcNAc(b1-3)Gal(b1-4)GlcNAc(b1-2)Man(a1-6)]GalNAc
# In short: as §1
# [28] = target: Neu5Ac(a2-6)Gal(b1-4)GlcNAc(b1-3)Gal(b1-4)GlcNAc(b1-3)Gal(b1-4)GlcNAc
# In short: as §1
# [29] = target: Neu5Ac(a2-6)Gal(b1-4)GlcNAc(b1-3)Gal(b1-4)GlcNAc(b1-3)Gal(b1-4)GlcNAc(b1-2)Man(a1-3)[Neu5Ac(a2-6)Gal(b1-4)GlcNAc(b1-3)Gal(b1-4)GlcNAc(b1-3)Gal(b1-4)GlcNAc(b1-2)Man(a1-6)]GalNAc
# In short: as §1
# [30] = target: Neu5Ac(a2-6)Gal(b1-4)GlcNAc(b1-3)Gal(b1-4)GlcNAc(b1-3)GalNAc
# In short: as §1
# [31] = target: Neu5Ac(a2-6)Gal(b1-4)GlcNAc(b1-3)Gal(b1-4)GlcNAc(b1-3)[Neu5Ac(a2-6)Gal(b1-4)GlcNAc(b1-3)Gal(b1-4)GlcNAc(b1-6)]GalNAc
# In short: as §1
# [32] = target: Neu5Ac(a2-6)Gal(b1-4)GlcNAc(b1-3)Gal(b1-4)GlcNAc(b1-6)[Gal(b1-3)]GalNAc
# In short: as §1
# [33] = target: Neu5Ac(a2-6)Gal(b1-4)GlcNAc(b1-3)Gal(b1-4)[Fuc(a1-3)]GlcNAc(b1-3)Gal(b1-4)[Fuc(a1-3)]GlcNAc
# In short: as §1
# [34] = target: Neu5Ac(a2-6)Gal(b1-4)GlcNAc(b1-3)GalNAc
# In short: as §1
# [35] = target: Neu5Ac(a2-6)Gal(b1-4)GlcNAc(b1-3)[Neu5Ac(a2-6)Gal(b1-4)GlcNAc(b1-6)]GalNAc
# In short: as §1
binder,measurement,setting,value
Threefoil (Haloarcula marismortui) (protein) GSSHHHHHHHHHHSSGLVPRGSHMGDGYYKLVARHSGKALDVENASTSDGANVIQYSYSGGDNQQWRLVDLGDGYYKLVARHSGKALDVENASTSDGANVIQYSYSGGDNQQWRLVDLGDGYYKLVARHSGKALDVENASTSDGANVIQYSYSGGDNQQWRLVDL,glycan array binding signal (z-score),[1],-0.363
same,glycan array binding signal (z-score),Neu5Ac(a2-3)GalNAc,-0.112
same,glycan array binding signal (z-score),[2],-0.219
same,glycan array binding signal (z-score),[3],-0.269
same,glycan array binding signal (z-score),[4],-0.341
same,glycan array binding signal (z-score),[5],-0.228
same,glycan array binding signal (z-score),[6],-0.222
same,glycan array binding signal (z-score),Neu5Ac(a2-6)Gal,-0.217
same,glycan array binding signal (z-score),[7],-0.029
same,glycan array binding signal (z-score),Neu5Ac(a2-6)Gal(b1-4)Glc,-0.224
same,glycan array binding signal (z-score),[8],-0.118
same,glycan array binding signal (z-score),[9],-0.236
same,glycan array binding signal (z-score),[10],-0.167
same,glycan array binding signal (z-score),[11],-0.255
same,glycan array binding signal (z-score),[12],-0.414
same,glycan array binding signal (z-score),[13],-0.272
same,glycan array binding signal (z-score),[14],-0.219
same,glycan array binding signal (z-score),[15],-0.214
same,glycan array binding signal (z-score),[16],-0.137
same,glycan array binding signal (z-score),[17],-0.249
same,glycan array binding signal (z-score),[18],-0.253
same,glycan array binding signal (z-score),[19],-0.306
same,glycan array binding signal (z-score),[20],-0.264
same,glycan array binding signal (z-score),[21],-0.314
same,glycan array binding signal (z-score),[22],-0.086
same,glycan array binding signal (z-score),[23],-0.256
same,glycan array binding signal (z-score),[24],-0.28
same,glycan array binding signal (z-score),[25],-0.223
same,glycan array binding signal (z-score),[26],-0.288
same,glycan array binding signal (z-score),[27],0.002
same,glycan array binding signal (z-score),[28],-0.154
same,glycan array binding signal (z-score),[29],-0.02
same,glycan array binding signal (z-score),[30],-0.072
same,glycan array binding signal (z-score),[31],-0.073
same,glycan array binding signal (z-score),[32],-0.183
same,glycan array binding signal (z-score),[33],-0.141
same,glycan array binding signal (z-score),[34],-0.163
same,glycan array binding signal (z-score),[35],-0.205
